# According to publication PMC4336329 (PLoS ONE, 2015):
# Screen size: about 310,000 compounds; about 14,000 (4.5%) showed an effect of 50% or more. The effect is printed as a negative number. This is one part of the list.
# Biological target: human ether-à-go-go-related gene (hERG) potassium channel (human, UniProt Q12809)
# Assay: primary screen, population patch clamp on CHO cells stably expressing hERG
# 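Also: peak tail current of the secondary pulse compared with the same well before compound.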
# human ether-à-go-go-related gene (hERG) potassium channel, sequence (Q12809 whole entry, looked up): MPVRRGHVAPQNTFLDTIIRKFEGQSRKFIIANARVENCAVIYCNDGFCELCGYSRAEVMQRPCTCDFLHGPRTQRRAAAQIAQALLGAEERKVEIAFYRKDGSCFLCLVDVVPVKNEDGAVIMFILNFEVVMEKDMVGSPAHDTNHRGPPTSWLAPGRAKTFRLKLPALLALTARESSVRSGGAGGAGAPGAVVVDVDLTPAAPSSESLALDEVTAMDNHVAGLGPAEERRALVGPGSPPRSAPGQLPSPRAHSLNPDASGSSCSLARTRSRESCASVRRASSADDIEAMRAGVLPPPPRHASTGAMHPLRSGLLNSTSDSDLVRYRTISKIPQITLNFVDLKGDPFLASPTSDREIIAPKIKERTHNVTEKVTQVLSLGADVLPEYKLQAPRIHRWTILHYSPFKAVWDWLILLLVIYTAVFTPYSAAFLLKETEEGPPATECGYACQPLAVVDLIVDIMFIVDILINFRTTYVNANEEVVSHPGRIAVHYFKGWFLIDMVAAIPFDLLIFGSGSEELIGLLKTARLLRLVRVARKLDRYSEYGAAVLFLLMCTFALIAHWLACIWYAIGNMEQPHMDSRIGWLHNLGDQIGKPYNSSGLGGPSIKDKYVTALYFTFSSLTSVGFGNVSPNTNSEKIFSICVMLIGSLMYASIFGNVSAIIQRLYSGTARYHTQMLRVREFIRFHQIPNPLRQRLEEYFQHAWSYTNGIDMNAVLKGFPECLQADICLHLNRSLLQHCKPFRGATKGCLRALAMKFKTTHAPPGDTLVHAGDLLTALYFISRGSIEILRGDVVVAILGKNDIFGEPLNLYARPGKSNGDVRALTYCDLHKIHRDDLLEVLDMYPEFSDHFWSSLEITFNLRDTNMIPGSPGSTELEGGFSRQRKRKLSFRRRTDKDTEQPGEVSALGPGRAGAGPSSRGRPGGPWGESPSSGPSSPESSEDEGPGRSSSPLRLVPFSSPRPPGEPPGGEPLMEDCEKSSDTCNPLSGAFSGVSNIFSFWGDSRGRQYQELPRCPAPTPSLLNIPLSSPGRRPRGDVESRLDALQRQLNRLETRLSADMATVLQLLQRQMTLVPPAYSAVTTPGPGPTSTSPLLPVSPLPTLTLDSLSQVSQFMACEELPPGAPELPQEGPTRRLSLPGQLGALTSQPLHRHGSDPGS
row,SMILES,"hERG current change (%, negative = inhibition) at 10uM [%]"
1,CCC1CCCCN1C(=O)c1ccc(OC2CCN(Cc3ccccn3)CC2)cc1 (stereo not shown),5.27
2,CCN(CC)S(=O)(=O)c1ccc(/C=C/C(=O)OCC(=O)NCc2ccc3c(c2)OCO3)cc1,5.34
3,Cc1cc(C)c(-c2csc(Cc3nc(-c4cc5ccccc5oc4=O)cs3)n2)cc1C,23.8
4,CC1=C(N2CCCCC2)CCC1=O,1.26
5,COC(=O)NNC(=O)C12CC3CC(CC(C3)C1)C2,2.97
6,CC(=O)Nc1ccc(SCCN2CC[C@@H](C(C)(C)C)CCC2=O)cc1,1.26
7,Cc1c(O)ccc(NS(=O)(=O)c2ccccc2)c1C,3.6
8,Cc1onc(-c2ccccc2Cl)c1C(=O)Nc1ncn[nH]1,5.24
9,C=CCN1c2ccccc2[C@]23C[C@@H](C(=O)OC)N(C(=O)c4ccco4)C2=NC(C(=O)OC)=C(C(=O)OC)[C@H]13,-32.4
10,CCc1c(C)sc(NC(=O)c2cc(-c3cc(OC)ccc3OC)on2)c1C#N,3.3
11,CC(Oc1ccccc1)c1ccnc(N)n1 (stereo not shown),17.7
12,COc1ccc(CNC(=O)C(OC(=O)c2ccco2)c2ccccc2F)cc1 (stereo not shown),-8.86
13,C/C(=N/NS(=O)(=O)c1ccc(Br)cc1)c1c[nH]c2ccccc12,13.7
14,CC1=C/C(=N\S(=O)(=O)c2ccccc2)C(C(C)C)=CC1=O,7.47
15,Cc1[nH]c(=O)[nH]c(=O)c1S(=O)(=O)N1c2ccc(F)cc2CCC1C (stereo not shown),13.8
16,Cc1nn(C)c(C)c1CNC(=O)/C=C/c1ccccc1F,4.73
17,COc1ccc(C)cc1S(=O)(=O)N1CCC(C(=O)N2CCN(C)CC2)CC1,23.2
18,Cc1cccc2c1N(N=O)CCC2,-2.33
19,Cc1ccccc1NC(=O)CSc1nc2c(c(-c3ccco3)c1C#N)CCCC2,-15.3
20,COc1ccc(Nc2nnc(SCC(=O)N3CCCC3)s2)cc1,2.03
21,O=C(NCc1cccs1)C(=O)NCC(c1ccco1)N1CCN(c2ccc(F)cc2)CC1 (stereo not shown),-29
22,COc1ccc(NC(=O)CN(C)C(=O)c2ccc3c(c2)OCCO3)cc1,17.5
23,COc1ccccc1CNC(=O)CN1C(=O)c2cccc(N)c2C1=O,16.9
24,Cc1cccc(NS(=O)(=O)c2cc(Cl)ccc2Cl)n1,22.2
25,COC(=O)Cc1c(O)ccn(CCc2c[nH]c3ccc(OC)cc23)c1=O,-20.9
